# Patent US20100173832A1, “ANTICANCEROUS POLYMERIC AGENTS” (TECHNION RESEARCH & DEVELOPMENT FOUNDATION LTD., priority 2007, published 2010)
# Part of at least one peptide drawing is inferred or uncertain, most often the ends. Non-standard residues stand in square brackets, D forms with d. Residues, ends and D or L forms follow the SMILES beside them. *: point of attachment. Lauroyl = CCCCCCCCCCCC(=O)*; 12Ado = NCCCCCCCCCCCC(=O)O; Octanoyl = CCCCCCCC(=O)*
# Test: Hydrophobicity by reverse-phase HPLC (% acetonitrile at elution)
# Format: physicochemical
# Conditions: HPLC-RP gradient
row,SMILES,ACN (%) (percent of acetonitrile in the HPLC-RP gradient mobile phase at which the polymer was eluted; estimated hydrophobicity)
1,NCCCCCCCCCCCC(=O)N[C@@H](CCCCN)C(=O)NCCCCCCCCCCCC(=O)N[C@@H](CCCCN)C(N)=O [(NC12K)2NH2],38.8
2,NCCCCCCCCCCCC(=O)N[C@@H](CCCCN)C(=O)NCCCCCCCCCCCC(=O)N[C@@H](CCCCN)C(=O)O [(NC12K)2],38.7
3,NCCCCCCCCCCCC(=O)N[C@@H](CCCCN)C(=O)NCCCCCCCCCCCC(=O)N[C@@H](CCCCN)C(=O)NCCCCCCCCCCCC(=O)N[C@@H](CCCCN)C(=O)O [(NC12K)3],43.8
4,NCCCCCCCCCCCC(=O)N[C@@H](CCCCN)C(=O)NCCCCCCCCCCCC(=O)N[C@@H](CCCCN)C(=O)NCCCCCCCCCCCC(=O)N[C@@H](CCCCN)C(=O)NCCCCCCCCCCCC(=O)N[C@@H](CCCCN)C(N)=O [(NC12K)4NH2],46.8
5,NCCCCCCCCCCCC(=O)N[C@@H](CCCCN)C(=O)NCCCCCCCCCCCC(=O)N[C@@H](CCCCN)C(=O)NCCCCCCCCCCCC(=O)N[C@@H](CCCCN)C(=O)NCCCCCCCCCCCC(=O)N[C@@H](CCCCN)C(=O)O [(NC12K)4],45.8
6,NCCCCCCCCCCCC(=O)N[C@@H](CCCCN)C(=O)NCCCCCCCCCCCC(=O)N[C@@H](CCCCN)C(=O)NCCCCCCCCCCCC(=O)N[C@@H](CCCCN)C(=O)NCCCCCCCCCCCC(=O)N[C@@H](CCCCN)C(=O)NCCCCCCCCCCCC(=O)N[C@@H](CCCCN)C(N)=O [(NC12K)5NH2],47.8
7,NCCCCCCCCCCCC(=O)N[C@@H](CCCCN)C(=O)NCCCCCCCCCCCC(=O)N[C@@H](CCCCN)C(=O)NCCCCCCCCCCCC(=O)N[C@@H](CCCCN)C(=O)NCCCCCCCCCCCC(=O)N[C@@H](CCCCN)C(=O)NCCCCCCCCCCCC(=O)N[C@@H](CCCCN)C(=O)NCCCCCCCCCCCC(=O)N[C@@H](CCCCN)C(N)=O [(NC12K)6NH2],49
8,NCCCCCCCCCCCC(=O)N[C@@H](CCCCN)C(=O)NCCCCCCCCCCCC(=O)N[C@@H](CCCCN)C(=O)NCCCCCCCCCCCC(=O)N[C@@H](CCCCN)C(=O)NCCCCCCCCCCCC(=O)N[C@@H](CCCCN)C(=O)NCCCCCCCCCCCC(=O)N[C@@H](CCCCN)C(=O)NCCCCCCCCCCCC(=O)N[C@@H](CCCCN)C(=O)NCCCCCCCCCCCC(=O)N[C@@H](CCCCN)C(N)=O [(NC12K)7NH2],50
9,NCCCCCCCCCCCC(=O)N[C@@H](CCCCN)C(=O)NCCCCCCCCCCCC(=O)N[C@@H](CCCCN)C(=O)NCCCCCCCCCCCC(=O)N[C@@H](CCCCN)C(=O)NCCCCCCCCCCCC(=O)N[C@@H](CCCCN)C(=O)NCCCCCCCCCCCC(=O)N[C@@H](CCCCN)C(=O)NCCCCCCCCCCCC(=O)N[C@@H](CCCCN)C(=O)NCCCCCCCCCCCC(=O)N[C@@H](CCCCN)C(=O)NCCCCCCCCCCCC(=O)N[C@@H](CCCCN)C(N)=O [(NC12K)8NH2],51
10,CCCCCCCCCCCC(=O)N[C@@H](CCCNC(=N)N)C(=O)NCCCCCCCCCCCC(=O)N[C@@H](CCCNC(=N)N)C(N)=O [C12ArgNC12ArgNH2],57.1
11,CCCCCCCCCCCC(=O)N[C@@H](CCCCN)C(=O)NCCCCCCCCCCCC(=O)N[C@@H](CCCCN)C(=O)NCCCCCCCCCCCC(=O)N[C@@H](CCCCN)C(N)=O [C12K(NC12K)2NH2],52.9
12,CCCCCCCCCCCC(=O)N[C@@H](CCCCN)C(=O)NCCCCCCCCCCCC(=O)N[C@@H](CCCCN)C(=O)NCCCCCCCCCCCC(=O)N[C@@H](CCCCN)C(=O)O [C12K(NC12K)2],56.4
13,CCCCCCCCCCCC(=O)N[C@@H](CCCCN)C(=O)NCCCCCCCCCCCC(=O)N[C@@H](CCCCN)C(=O)NCCCCCCCCCCCC(=O)N[C@@H](CCCCN)C(=O)NCCCCCCCCCCCC(=O)N[C@@H](CCCCN)C(N)=O [C12K(NC12K)3NH2],53.5
14,CCCCCCCCCCCC(=O)N[C@@H](CCCCN)C(=O)NCCCCCCCCCCCC(=O)N[C@@H](CCCCN)C(=O)NCCCCCCCCCCCC(=O)N[C@@H](CCCCN)C(=O)NCCCCCCCCCCCC(=O)N[C@@H](CCCCN)C(=O)O [C12K(NC12K)3],54.6
15,CCCCCCCCCCCC(=O)N[C@@H](CCCCN)C(=O)NCCCCCCCCCCCC(=O)N[C@@H](CCCCN)C(N)=O [C12KNC12KNH2],54.4
16,CCCCCCCCCCCC(=O)N[C@@H](CCCCN)C(=O)NCCCCCCCCCCCC(=O)N[C@@H](CCCCN)C(=O)O [C12KNC12K],56.9
17,CCCCCCCCCCCC(=O)N[C@@H](CCCN)C(=O)NCCCCCCCCCCCC(=O)N[C@@H](CCCN)C(N)=O [C12OrnNC12OrnNH2],53.8
18,NCCCC[C@H](NC(=O)CCCCCCCCCCCNC(=O)[C@H](CCCCN)NC(=O)CCCCCCCCCCCNC(=O)[C@@H](N)CCCCN)C(N)=O [K(NC12K)2NH2],40
19,NCCCC[C@H](NC(=O)CCCCCCCCCCCNC(=O)[C@H](CCCCN)NC(=O)CCCCCCCCCCCNC(=O)[C@@H](N)CCCCN)C(=O)O [K(NC12K)2],36.4
20,NCCCC[C@H](NC(=O)CCCCCCCCCCCNC(=O)[C@H](CCCCN)NC(=O)CCCCCCCCCCCNC(=O)[C@H](CCCCN)NC(=O)CCCCCCCCCCCNC(=O)[C@@H](N)CCCCN)C(N)=O [K(NC12K)3NH2],44
21,NCCCC[C@H](NC(=O)CCCCCCCCCCCNC(=O)[C@H](CCCCN)NC(=O)CCCCCCCCCCCNC(=O)[C@H](CCCCN)NC(=O)CCCCCCCCCCCNC(=O)[C@@H](N)CCCCN)C(=O)O [K(NC12K)3],42.8
22,NCCCC[C@H](NC(=O)CCCCCCCCCCCNC(=O)[C@H](CCCCN)NC(=O)CCCCCCCCCCCNC(=O)[C@H](CCCCN)NC(=O)CCCCCCCCCCCNC(=O)[C@H](CCCCN)NC(=O)CCCCCCCCCCCNC(=O)[C@H](CCCCN)NC(=O)CCCCCCCCCCCNC(=O)[C@@H](N)CCCCN)C(N)=O [K(NC12K)5NH2],47

# Same assay, conditions: percent acetonitrile at elution, C18 reverse-phase HPLC gradient
row,SMILES,Hydrophobicity (% ACN)
1,CCCCCCCCCCCC(=O)N[C@@H](CCCCN)C(=O)N[C@@H](CCCCN)C(=O)NCCCCCCCCCCCC(=O)N[C@@H](CCCCN)C(=O)N[C@@H](CCCCN)C(=O)NCCCCCCCCCCCC(=O)N[C@@H](CCCCN)C(=O)N[C@@H](CCCCN)C(=O)NCCCCCCCCCCCC(=O)N[C@@H](CCCCN)C(N)=O (Lauroyl-KK[12Ado]KK[12Ado]KK[12Ado]K-NH2),48.8
2,CCCCCCCCCCCC(=O)N[C@@H](CCCCN)C(=O)NCCCCCCCCCCCC(=O)N[C@@H](CCCCN)C(=O)N[C@@H](CCCCN)C(=O)NCCCCCCCCCCCC(=O)N[C@@H](CCCCN)C(=O)N[C@@H](CCCCN)C(=O)NCCCCCCCCCCCC(=O)N[C@@H](CCCCN)C(N)=O (Lauroyl-K[12Ado]KK[12Ado]KK[12Ado]K-NH2),51.2
3,CCCCCCCC(=O)N[C@@H](CCCCN)C(=O)NCCCCCCCCCCCC(=O)N[C@@H](CCCCN)C(=O)N[C@@H](CCCCN)C(=O)NCCCCCCCCCCCC(=O)N[C@@H](CCCCN)C(N)=O [C8(KNC12K)2NH2] (Octanoyl-K[12Ado]KK[12Ado]K-NH2),45
4,CCCCCCCC(=O)N[C@@H](CCCCN)C(=O)NCCCCCCCCCCCC(=O)N[C@@H](CCCCN)C(=O)N[C@@H](CCCCN)C(=O)NCCCCCCCCCCCC(=O)N[C@@H](CCCCN)C(=O)N[C@@H](CCCCN)C(=O)NCCCCCCCCCCCC(=O)N[C@@H](CCCCN)C(N)=O [C8(KNC12K)3NH2] (Octanoyl-K[12Ado]KK[12Ado]KK[12Ado]K-NH2),44.3
5,CCCCCCCC(=O)N[C@@H](CCCCN)C(=O)N[C@@H](CCCCN)C(=O)NCCCCCCCCCCCC(=O)N[C@@H](CCCCN)C(=O)N[C@@H](CCCCN)C(=O)NCCCCCCCCCCCC(=O)N[C@@H](CCCCN)C(N)=O [C8K(KNC12K)2NH2] (Octanoyl-KK[12Ado]KK[12Ado]K-NH2),42.6
6,CCCCCCCC(=O)N[C@@H](CCCCN)C(=O)N[C@@H](CCCCN)C(=O)NCCCCCCCCCCCC(=O)N[C@@H](CCCCN)C(N)=O [C8KKNC12KNH2] (HELM PEPTIDE1{[CCCCCCCC(=O)[*:2]].K.K.[O=C(CCCCCCCCCCCN[*:1])[*:2]].K.[am]}$$$$V2.0),40.3
7,CCCCCCCCCCCC(=O)N[C@@H](CCCCN)C(=O)N[C@@H](CCCCN)C(=O)NCCCCCCCCCCCC(=O)N[C@@H](CCCCN)C(=O)N[C@@H](CCCCN)C(=O)NCCCCCCCCCCCC(=O)N[C@@H](CCCCN)C(N)=O [C12K(KNC12K)2NH2] (Lauroyl-KK[12Ado]KK[12Ado]K-NH2),51
8,CCCCCCCCCCCC(=O)N[C@@H](CCCCN)C(=O)N[C@@H](CCCCN)C(=O)NCCCCCCCCCCCC(=O)N[C@@H](CCCCN)C(N)=O [C12KKNC12KNH2] (HELM PEPTIDE1{[CCCCCCCCCCCC(=O)[*:2]].K.K.[O=C(CCCCCCCCCCCN[*:1])[*:2]].K.[am]}$$$$V2.0),54
9,NCCCC[C@H](NC(=O)CCCCCCCCCCCNC(=O)[C@H](CCCCN)NC(=O)[C@H](CCCCN)NC(=O)CCCCCCCCCCCNC(=O)[C@H](CCCCN)NC(=O)[C@@H](N)CCCCN)C(N)=O [K(KNC12K)2NH2] (HELM PEPTIDE1{K.K.[O=C(CCCCCCCCCCCN[*:1])[*:2]].K.K.[O=C(CCCCCCCCCCCN[*:1])[*:2]].K.[am]}$$$$V2.0),37.3
10,NCCCC[C@H](NC(=O)CCCCCCCCCCCNC(=O)[C@H](CCCCN)NC(=O)[C@H](CCCCN)NC(=O)CCCCCCCCCCCNC(=O)[C@H](CCCCN)NC(=O)[C@H](CCCCN)NC(=O)CCCCCCCCCCCNC(=O)[C@H](CCCCN)NC(=O)[C@@H](N)CCCCN)C(N)=O [K(KNC12K)3NH2] (H-KK[12Ado]KK[12Ado]KK[12Ado]K-NH2),33.2
